In PubChem BioAssay AID504937 (National Center for Advancing Translational Sciences (NCATS), 2011):
The campaign covered roughly 340,000 compounds. About 20 (0.006%) were called active. The inconclusive results got no clear call from the source; some entries with a clear call stand among them for comparison. Calls follow the shape of the dose curve; as a rule, active = well fitted inhibition curve with a large enough effect; inconclusive = small, poorly fitted or top-dose-only effect; inactive = no such curve, though single readings can be large or run the other way. Where the call is inconclusive, the potency comes from a doubtful curve fit.

Biological target: Sphingomyelin phosphodiesterase (Homo sapiens) (UniProt P17405)
Assay: Inhibitors of Secretory Acid Sphingomyelinase (S-ASM): qHTS
Conditions: placental ASM, HMU-PC fluorogenic substrate (series up to 57.5 µM), 60 min
Method in brief: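 HMU-PC0 cleavage (9 uM final) by human placental ASM, 60 min at 37 °C following 10 min compound exposure at RT; stopped at pH 10, fluorescence Ex 386/Em 447 nm.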
Potency is read from the fitted curve at half-maximal effect; tags tell the direction and shape of the fitted curve.

UniProt P17405, sequence (P17405 whole entry, looked up): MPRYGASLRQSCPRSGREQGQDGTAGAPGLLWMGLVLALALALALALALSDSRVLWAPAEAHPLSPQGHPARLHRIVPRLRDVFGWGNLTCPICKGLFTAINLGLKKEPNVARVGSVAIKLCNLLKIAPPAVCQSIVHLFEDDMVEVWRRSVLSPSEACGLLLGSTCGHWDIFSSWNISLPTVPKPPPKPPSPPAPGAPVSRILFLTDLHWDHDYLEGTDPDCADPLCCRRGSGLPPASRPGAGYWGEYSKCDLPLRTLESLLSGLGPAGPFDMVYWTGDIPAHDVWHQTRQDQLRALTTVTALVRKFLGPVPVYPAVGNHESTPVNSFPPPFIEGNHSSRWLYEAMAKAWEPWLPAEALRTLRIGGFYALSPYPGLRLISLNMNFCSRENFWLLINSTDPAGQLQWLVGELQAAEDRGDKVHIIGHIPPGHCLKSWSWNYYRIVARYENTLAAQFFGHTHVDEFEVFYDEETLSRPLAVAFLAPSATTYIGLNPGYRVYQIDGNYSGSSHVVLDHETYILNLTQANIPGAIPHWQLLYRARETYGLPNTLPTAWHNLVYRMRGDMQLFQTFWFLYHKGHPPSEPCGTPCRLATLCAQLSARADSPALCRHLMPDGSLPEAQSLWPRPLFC

SMILES | Potency
CCOc1ccc(/C(CCC(=O)O)=N/NC(=S)NCCc2ccccc2)cc1 | inconclusive: 70.8 µM [inhibitor, partial curve, poor fit]
Cc1ccc(NC2CCCN(C(=O)c3ccc4nccnc4c3)C2)cc1C (stereo unspecified) | inactive
N#C/C(=C\c1cc([N+](=O)[O-])c(N2CCOCC2)cc1N1CCOCC1)c1nc2ccccc2[nH]1 | inconclusive: 50.1 µM [inhibitor, partial curve, poor fit]
CCN(C[C@H]1N[C@@](C)(C(=O)OC)[C@H]2C(=O)N(Cc3ccccc3)C(=O)[C@@H]12)C(=O)Nc1ccc(Cl)cc1 | inconclusive: 631 µM [inhibitor, partial curve, poor fit]
O=C(Nc1ccc2nc(SCc3ccc(Cl)cc3)sc2c1)c1ccccc1C(=O)N1CCOCC1 | inconclusive: 447 µM [inhibitor, partial curve, poor fit]
Cc1cc(C(=O)N2CCCC(C(=O)c3ccc(Oc4ccccc4)cc3)C2)n[nH]1 (stereo unspecified) | inactive
Cc1c(C(=O)N2CCN(c3ccc(C(F)(F)F)cn3)CC2)oc2ccccc12 | inconclusive: 112 µM [inhibitor, partial curve, poor fit]
O=C(CNS(=O)(=O)c1ccccc1)NCC(=O)OCc1ccc(Cl)cc1 | inactive
Clc1ccc(C2=Nn3c(nnc3-c3n[nH]c4c3CCC4)SC2)cc1Cl | inconclusive: 70.8 µM [inhibitor, partial curve]
Cc1ccc(NS(=O)(=O)c2ccc(-c3csc(C)n3)s2)c(C)c1 | inconclusive: 200 µM [inhibitor, partial curve, poor fit]
CC(=O)Nc1ccc(OCC(O)Cn2c3ccccc3c3ccccc32)c(C)c1 (stereo unspecified) | inconclusive: 112 µM [inhibitor, partial curve, poor fit]
COc1ccc(CCNC(=O)/C=C/c2ccc(OC)c(S(=O)(=O)N3CCOCC3)c2)cc1 | inactive
Clc1ccc(C2=CSC3=Nc4cccc5cccc(c45)N23)cc1 | inconclusive: 112 µM [inhibitor, partial curve, poor fit]
O=C(COC(=O)C(O)c1ccccc1)NC12CC3CC(CC(C3)C1)C2 (stereo unspecified) | inactive
c1ccc(-c2nc3cnccn3c2Nc2ccc3c(c2)OCCO3)cc1 | inconclusive: 282 µM [inhibitor, partial curve, poor fit]
CCN1CCN(Cc2ccc(NC(=O)c3ccc(C)c(NC(=O)c4c[nH]c5cc(C(F)(F)F)ccc5c4=O)c3)cc2C(F)(F)F)CC1 | inconclusive: 79.4 µM [inhibitor, single point]
